Some of the results follow.
Columns and labels:
Test in all cases: glycan array binding signal (z-score within array); higher = stronger binding
Details in all cases: glycan notation: IUPAC condensed, linker removed
GlcNAc(b1-3)Man = biological target: GlcNAc(b1-3)Man
Summary of the method: (§1)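 Columns mapping to the same glycan were averaged after glycan names were converted to IUPAC-condensed notation. The data come from 3228 arrays in the Consortium for Functional Glycomics database, limited to those with an available protein sequence. Binding is reported as a within-array Z-score averaged across arrays of one protein sequence and across linkers.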

[1] = biological target: GlcNAc(b1-3)[GlcNAc(b1-4)][GlcNAc(b1-6)]GlcNAc
Summary of the method: as §1

[2] = biological target: GlcNAc(b1-3)[GlcNAc(b1-6)]Gal(b1-4)GlcNAc
Summary of the method: as §1

[3] = biological target: GlcNAc(b1-3)[GlcNAc(b1-6)]GalNAc
Summary of the method: as §1

[4] = biological target: GlcNAc(b1-4)Gal(b1-4)GlcNAc
Summary of the method: as §1

GlcNAc(b1-4)GlcNAc = biological target: GlcNAc(b1-4)GlcNAc
Summary of the method: as §1

[5] = biological target: GlcNAc(b1-4)GlcNAc(b1-4)GlcNAc
Summary of the method: as §1

[6] = biological target: GlcNAc(b1-4)GlcNAc(b1-4)GlcNAc(b1-4)GlcNAc(b1-4)GlcNAc
Summary of the method: as §1

[7] = biological target: GlcNAc(b1-4)GlcNAc(b1-4)GlcNAc(b1-4)GlcNAc(b1-4)GlcNAc(b1-4)GlcNAc
Summary of the method: as §1

[8] = biological target: GlcNAc(b1-4)[GlcNAc(b1-6)]GalNAc
Summary of the method: as §1

[9] = biological target: GlcNAc(b1-6)Gal(b1-4)GlcNAc
Summary of the method: as §1

GlcNAc(b1-6)GalNAc = biological target: GlcNAc(b1-6)GalNAc
Summary of the method: as §1

[10] = biological target: GlcNAc6S(b1-3)Gal(b1-4)GlcNAc
Summary of the method: as §1

Kdn(a2-3)Gal(b1-3)GalNAc = biological target: Kdn(a2-3)Gal(b1-3)GalNAc
Summary of the method: as §1

Kdn(a2-3)Gal(b1-3)GlcNAc = biological target: Kdn(a2-3)Gal(b1-3)GlcNAc
Summary of the method: as §1

Kdn(a2-3)Gal(b1-4)Glc = biological target: Kdn(a2-3)Gal(b1-4)Glc
Summary of the method: as §1

Kdn(a2-3)Gal(b1-4)GlcNAc = biological target: Kdn(a2-3)Gal(b1-4)GlcNAc
Summary of the method: as §1

[11] = biological target: Kdn(a2-3)Gal(b1-4)[Fuc(a1-3)]GlcNAc
Summary of the method: as §1

Kdn(a2-6)Gal(b1-4)GlcNAc = biological target: Kdn(a2-6)Gal(b1-4)GlcNAc
Summary of the method: as §1

[12] = biological target: Man(a1-2)Man(a1-2)Man(a1-3)Man
Summary of the method: as §1

[13] = biological target: Man(a1-2)Man(a1-2)Man(a1-6)[Man(a1-3)]Man
Summary of the method: as §1

Man(a1-2)Man(a1-3)Man = biological target: Man(a1-2)Man(a1-3)Man
Summary of the method: as §1

[14] = biological target: Man(a1-2)Man(a1-3)[Man(a1-2)Man(a1-6)]Man
Summary of the method: as §1

[15] = biological target: Man(a1-2)Man(a1-3)[Man(a1-2)Man(a1-6)]Man(a1-6)[Man(a1-2)Man(a1-2)Man(a1-3)]Man
Summary of the method: as §1

[16] = biological target: Man(a1-2)Man(a1-3)[Man(a1-2)Man(a1-6)]Man(a1-6)[Man(a1-2)Man(a1-2)Man(a1-3)]Man(b1-4)GlcNAc(b1-4)GlcNAc
Summary of the method: as §1

[17] = biological target: Man(a1-2)Man(a1-3)[Man(a1-6)]Man(a1-6)[Man(a1-2)Man(a1-3)]Man(b1-4)GlcNAc(b1-4)GlcNAc
Summary of the method: as §1

[18] = biological target: Man(a1-2)Man(a1-6)[Man(a1-3)]Man(a1-6)[Man(a1-2)Man(a1-2)Man(a1-3)]Man
Summary of the method: as §1

[19] = biological target: Man(a1-2)Man(a1-6)[Man(a1-3)]Man(a1-6)[Man(a1-2)Man(a1-2)Man(a1-3)]Man(b1-4)GlcNAc(b1-4)GlcNAc
Summary of the method: as §1

Man(a1-3)[Man(a1-6)]Man = biological target: Man(a1-3)[Man(a1-6)]Man
Summary of the method: as §1

[20] = biological target: Man(a1-3)[Man(a1-6)]Man(a1-6)[Man(a1-2)Man(a1-3)]Man(b1-4)GlcNAc(b1-4)GlcNAc
Summary of the method: as §1

[21] = biological target: Man(a1-3)[Man(a1-6)]Man(a1-6)[Man(a1-3)]Man
Summary of the method: as §1

[22] = biological target: Man(a1-3)[Man(a1-6)]Man(a1-6)[Man(a1-3)]Man(b1-4)GlcNAc(b1-4)GlcNAc
Summary of the method: as §1

[23] = biological target: Man(a1-3)[Man(a1-6)]Man(b1-4)GlcNAc(b1-4)GlcNAc
Summary of the method: as §1

[24] = biological target: Man(a1-3)[Man(a1-6)]Man(b1-4)GlcNAc(b1-4)[Fuc(a1-6)]GlcNAc
Summary of the method: as §1

Man(a1-6)Man = biological target: Man(a1-6)Man
Summary of the method: as §1

Man(b1-4)GlcNAc = biological target: Man(b1-4)GlcNAc
Summary of the method: as §1

MurNAc(b1-4)GlcNAc = biological target: MurNAc(b1-4)GlcNAc
Summary of the method: as §1

Neu5Ac(a2-3)Gal = biological target: Neu5Ac(a2-3)Gal
Summary of the method: as §1

B1: GS13846A-bth-444-19-444 (Bacteroides thetaiotaomicron) (protein)
chain: SCENEFDVSDKADSLISVTVNTLNNQAAYNVGETAQAELWIQRGGLKDASGKVQFVVDPLLLDSLNQEDKTNYELLPENCYEMTNTEFTVDKNELCGYITYHPEKILALSAYNETKYVLPLRLISNDLAINPARNTSFLAFTILEPIVHISNAGVYNINPDLTSTMDIQIGVPFTNKWDILCNLTEDLSLIDEYNQINKVNFTLLPENAYTAPESVTLQEGVSQITASYQLKNNLVPGNYILPIKIGSITASQGGVPNNSLVIDEESNVLFCIVKEGNKINKSGWEVIECSSEHAGNEATYMIDDNESTYWHCKFKNEAGSSVPPFHFIIDMKKEITIAQIDLLNRGDGAANNIKWVEFYASNNNSEWDKIGAGDFNDEGTRATFRYYVKSTKARYLKLIIPEGYGNNCPPAAIRELTVYGLEGNN
In the case of B1, the “glycan array binding signal (z-score)” value (GlcNAc(b1-3)Man) is reported as -0.278, the “glycan array binding signal (z-score)” value [1] is reported as -0.464 and the “glycan array binding signal (z-score)” value [2] is reported as -0.041. For the same binder, the “glycan array binding signal (z-score)” value [3] was -0.274, the “glycan array binding signal (z-score)” value [4] was -0.193 and the “glycan array binding signal (z-score)” value (GlcNAc(b1-4)GlcNAc) was -0.324. For the same binder, the “glycan array binding signal (z-score)” value [5] was -0.081, the “glycan array binding signal (z-score)” value [6] was -0.224 and the “glycan array binding signal (z-score)” value [7] was -0.104. The “glycan array binding signal (z-score)” value [8] was -0.208, the “glycan array binding signal (z-score)” value [9] was -0.131 and the “glycan array binding signal (z-score)” value (GlcNAc(b1-6)GalNAc) was -0.108. For the same binder, the “glycan array binding signal (z-score)” value [10] was -0.011, the “glycan array binding signal (z-score)” value (Kdn(a2-3)Gal(b1-3)GalNAc) was -0.219 and the “glycan array binding signal (z-score)” value (Kdn(a2-3)Gal(b1-3)GlcNAc) was -0.228. The “glycan array binding signal (z-score)” value (Kdn(a2-3)Gal(b1-4)Glc) was -0.259, the “glycan array binding signal (z-score)” value (Kdn(a2-3)Gal(b1-4)GlcNAc) was -0.171 and the “glycan array binding signal (z-score)” value [11] was 0.218. For the same binder, the “glycan array binding signal (z-score)” value (Kdn(a2-6)Gal(b1-4)GlcNAc) was -0.191, the “glycan array binding signal (z-score)” value [12] was -0.375 and the “glycan array binding signal (z-score)” value [13] was -0.207. For the same binder, the “glycan array binding signal (z-score)” value (Man(a1-2)Man(a1-3)Man) was -0.266, the “glycan array binding signal (z-score)” value [14] was -0.335 and the “glycan array binding signal (z-score)” value [15] was -0.25. For the same binder, the “glycan array binding signal (z-score)” value [16] was 0.749, the “glycan array binding signal (z-score)” value [17] was -0.361 and the “glycan array binding signal (z-score)” value [18] was -0.337. For the same binder, the “glycan array binding signal (z-score)” value [19] was -0.182, the “glycan array binding signal (z-score)” value (Man(a1-3)[Man(a1-6)]Man) was -0.024 and the “glycan array binding signal (z-score)” value [20] was -0.084. For the same binder, the “glycan array binding signal (z-score)” value [21] was 0.111, the “glycan array binding signal (z-score)” value [22] was -0.074 and the “glycan array binding signal (z-score)” value [23] was -0.437. For the same binder, the “glycan array binding signal (z-score)” value [24] was -0.186, the “glycan array binding signal (z-score)” value (Man(a1-6)Man) was -0.348 and the “glycan array binding signal (z-score)” value (Man(b1-4)GlcNAc) was -0.063. For the same binder, the “glycan array binding signal (z-score)” value (MurNAc(b1-4)GlcNAc) was -0.055 and the “glycan array binding signal (z-score)” value (Neu5Ac(a2-3)Gal) was -0.549.

Reference: the supplement of paper PMC8728848
